# Test results taken from PubChem BioAssay (NCATS).
# Where “and” joins values, the source holds several entries; their conditions need not be identical. Equal values may be shown once. Some of the results follow. Shown are side measurements of this screen, not its main read-out; they come without a call. The list favours compounds with an active or inconclusive main result. The note in brackets gives the kind of curve behind each potency; many fits are weak.
# Experiments:
# [1] = qHTS Assay for Lipid Storage Modulators (AID 1519); conditions: Drosophila S3 cells, BODIPY lipid droplet/cell ratio, laser cytometry, cells loaded with oleic acid
# Method in brief: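 Cells seeded at 5,000 per well were treated with compounds over a concentration series and loaded with oleic acid (400 uM, as added). Lipid droplet fluorescence (488 nm excitation, 500-530 nm channel) was read by laser-scanning cytometry and normalized to 20 uM Triacsin C.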
# [2] = qHTS Assay for Modulators of Human Peripheral Myelin Protein 22 (PMP22) Expression/Activity (AID 1967); conditions: Cell-based PMP22 reporter, dual-color luciferase ratio
# Method in brief: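 Engineered MSC80 cells, Pmp22-promoter green and EF-alpha red luciferase reporters; 24h compound treatment at 37 °C. Concentration-response fits on green, red and ratio signals, each overlap-corrected, with %Activity normalized to untreated wells.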
# [3] = Nrf2 qHTS screen for inhibitors: Validation (AID 493153); conditions: A549 ARE-Fluc reporter, 18-24 h; AC50: CellTiter-Fluor fluorescence read, measured here: cytotoxicity CellTiter-Fluor AC50; viability change: measured here: cytotoxicity max response
# Method in brief: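 Concentration-response on A549 ARE_Fluc reporter cells exposed 18-24 h at 37 C, 5% CO2. Cytotoxicity read first by CellTiter-Fluor fluorescence (Ex 405/Em 525), then Nrf2 inhibition by BugLite luminescence after 15 min.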
# [4] = qHTS Assay for Inhibitors of PDE-IV (AID 607); conditions: HEK293 ACTOne CNG channel cells, membrane potential fluorescence; measured here: parental cell counter-screen;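 also: parental cells stimulated with forskolin 10 µM plus RO 20-1724 100 µM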
# Method in brief: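 The readout is membrane depolarisation from a cAMP-sensing CNG channel, detected with a potential dye at ex 535/em 590. Cells were HEK293-derived (endogenous PDE-IV) at 1000 cells/well, titrated up to 22.9 uM final.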
# [5] = qHTS Validation Assay to Find Inhibitors of Chronic Active B-Cell Receptor Signaling (AID 485345); conditions: ABC-DLBCL cells, chronic BCR signaling reporter
# Method in brief: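 TMD8 ABC-DLBCL cells with dox-inducible green luciferase–IκBα fusion and red native luciferase; compounds 46 uM–3 nM, 4 h at 37C with doxycycline in 0.5% FBS IMDM. Green/red ratio normalized to basal and 10 uM MG-132.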
# [6] = qHTS for identification of novel therapeutic agents for treatment of microphthalmiaassociated transcription factor (MiT) renal cell carcinoma (RCC) (AID 1963991); conditions: CellTiter-Glo, 48 h; for z-score: stronger effect = lower value;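 as to z-score: curves scaled with 100% = DMSO viability and 0% = empty wells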
# Method in brief: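 UOK109/UOK124/UOK145 (TFE3 fusions, three partners); 500 cells/well; MIPE v4.0, 1912 cpds, 11 conc.; 48 h, 37 C; CellTiter-Glo, 15 min RT; lum. Norm.: DMSO 100%, empty 0%.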
# [7] = measured here: cell count channel max response
# [8] = measured here: cell number channel AC50
# [9] = measured here: lipid (BODIPY) channel AC50
# [10] = measured here: lipid channel max response
# [11] = measured here: green reporter channel AC50, mouse Pmp22 promoter in mouse Schwann cells
# [12] = measured here: red reporter channel AC50, EF-alpha promoter control reporter in MSC80 mouse Schwann cells
# [13] = measured here: CBG/CBR ratio read-out
# [14] = measured here: CBR control luciferase (viability counter)
# Tags tell the direction and shape of the fitted curve.
smiles,measurement,setting,value
O=[N+]([O-])c1cc(O)c(O)c([N+](=O)[O-])c1,max response,[1]; [7],40.7%
same,AC50,[1]; [8],"25.1 µM [rising, partial curve, poor fit]"
same,AC50,[1]; [9],"25.1 µM [rising, partial curve, poor fit]"
same,max response,[1]; [10],50.4%
same,AC50,[2]; [11],"75.7 µM [rising, single point]"
same,AC50,[2]; [12],"84.9 µM [falling, single point]"
same,AC50,[3],"23.1 µM [falling, single point]"
same,viability change,[3],-38.2%
O=c1c2ccccc2[se]n1-c1ccccc1,AC50,[4],"6.31 µM [rising, partial curve, poor fit]"
same,max response,[1]; [7],-55.9% and -38.8%
same,AC50,[1]; [8],"15.8 µM [falling, single point] and 15.8 µM [falling, partial curve, poor fit]"
same,AC50,[1]; [9],"15.8 µM [falling, single point] and 15.8 µM [falling, full curve, poor fit]"
same,max response,[1]; [10],-81% and -42.1%
same,AC50,[2]; [11],"42.6 µM [falling, full curve]"
same,AC50,[2]; [12],"33.8 µM [falling, full curve]"
same,AC50,[5]; [13],"18.4 µM [falling, partial curve]"
same,AC50,[5]; [14],"16.4 µM [falling, partial curve]"
CCCN(CCC)[C@@H]1CCc2c(F)ccc(O)c2C1,max response,[1]; [7],35.5%
same,AC50,[1]; [8],"22.4 µM [falling, single point]"
same,AC50,[1]; [9],"22.4 µM [falling, partial curve, poor fit]"
same,max response,[1]; [10],34.7%
same,AC50,[2]; [12],"12 µM [rising, partial curve, poor fit]"
CN1C[C@H](C(=O)N[C@]2(C)O[C@@]3(O)C4CCCN4C(=O)[C@H](Cc4ccccc4)N3C2=O)C[C@@H]2c3cccc4[nH]cc(c34)C[C@H]21 (stereo partly drawn),max response,[1]; [7],54.6% and 42.3%
same,AC50,[1]; [8],"2.51 µM [rising, full curve, poor fit]"
same,AC50,[1]; [9],"2.82 µM [rising, partial curve, poor fit]"
same,max response,[1]; [10],63% and 40.8%
same,AC50,[2]; [11],"42.6 µM [falling, partial curve]"
same,AC50,[2]; [12],"33.8 µM [falling, partial curve]"
COc1cc(C(O)CN)ccc1O (stereo not drawn),max response,[1]; [7],39.2%
same,AC50,[1]; [8],"2.82 µM [falling, full curve, poor fit]"
same,AC50,[1]; [9],"2.82 µM [falling, full curve, poor fit]"
same,max response,[1]; [10],39.6%
same,AC50,[2]; [12],"84.9 µM [falling, single point]"
O=c1c(O)c(-c2ccc(O)c(O)c2)oc2cc(O)cc(O)c12,max response,[1]; [7],-29.1% and -49.6% and 34.2%
same,AC50,[1]; [8],"25.1 µM [falling, single point]"
same,AC50,[1]; [9],"22.4 µM [falling, single point] and 39.8 µM [falling, partial curve, poor fit] and 25.1 µM [falling, single point]"
same,max response,[1]; [10],-34.2% and -63.5% and 35.3%
same,AC50,[2]; [11],"6.01 µM [rising, single point]"
same,AC50,[2]; [12],"47.8 µM [falling, partial curve, poor fit]"
same,AC50,[5]; [13],"23.1 µM [falling, single point]"
O=c1[nH]c(=O)n([C@H]2C[C@H](O)[C@@H](CO)O2)cc1/C=C/Br,max response,[1]; [7],-30.1%
same,AC50,[1]; [8],"3.55 µM [falling, full curve, poor fit]"
same,AC50,[1]; [9],"3.55 µM [falling, full curve, poor fit]"
same,max response,[1]; [10],-29.5%
same,AC50,[2]; [12],"84.9 µM [falling, partial curve]"
Oc1ccc2c3c1O[C@H]1c4[nH]c5ccccc5c4C[C@@]4(O)C(C2)N(CC2CC2)CCC314 (stereo partly drawn),max response,[1]; [7],36.5%
same,AC50,[1]; [8],"39.8 µM [rising, single point]"
same,AC50,[1]; [9],"39.8 µM [rising, single point]"
same,max response,[1]; [10],37.7%
same,AC50,[2]; [11],"33.8 µM [falling, partial curve]"
same,AC50,[2]; [12],"37.9 µM [falling, partial curve]"
same,AC50,[5]; [14],"20.6 µM [falling, single point]"
CCCCN1C2CCC1CC(OC(c1ccc(F)cc1)c1ccc(F)cc1)C2 (stereo not drawn),max response,[1]; [7],8.1%
same,AC50,[1]; [8],"1.58 µM [falling, full curve, poor fit]"
same,AC50,[1]; [9],"1.58 µM [falling, full curve, poor fit]"
same,max response,[1]; [10],6.83%
same,AC50,[2]; [11],"33.8 µM [falling, full curve]"
same,AC50,[2]; [12],"33.8 µM [falling, full curve]"
CCC1(c2ccc(N)cc2)CCC(=O)NC1=O (stereo not drawn),max response,[1]; [7],22.8% and -90.6%
same,AC50,[1]; [8],"15.8 µM [falling, partial curve, poor fit]"
same,AC50,[1]; [9],"22.4 µM [rising, partial curve, poor fit] and 15.8 µM [falling, partial curve, poor fit]"
same,max response,[1]; [10],33.9% and -90.7%
same,AC50,[2]; [12],"84.9 µM [falling, single point]"
same,z-score,"[6]; TFE3-RCC UOK109 viability, measured here: UOK109 Z-AUC",0.399
same,z-score,"[6]; TFE3-RCC viability, measured here: UOK124 Z-AUC",0.582
same,z-score,"[6]; TFE3-RCC viability, measured here: UOK145 Z-AUC",2.39
same,AC50,"[6]; TFE3-RCC viability, measured here: UOK145 cell viability","0.166 µM [falling, full curve]"
NC(Cc1cc(O)c(O)cc1O)C(=O)O (stereo not drawn),max response,[1]; [7],-37.3%
same,AC50,[1]; [8],"20 µM [falling, partial curve, poor fit]"
same,AC50,[1]; [9],"20 µM [falling, partial curve, poor fit]"
same,max response,[1]; [10],-38.3%
same,AC50,[2]; [11],"84.9 µM [falling, single point]"
same,AC50,[2]; [12],"84.9 µM [falling, single point]"
